Out of some 150,000 compounds screened, about 540 (0.36%) showed an effect of 50% or more. The list shows a part of the results.

In this assay the test system is Plasmodium falciparum. The assay can be described thus: Primary screen in NF54 nanoGlo assay, in single point, at 2uM, 72h; a lower Z score goes with more inhibition. It counts as functional, Erythrocyte. The note with it: timepoint 72 hour.
For `COC(=O)CNC(=O)[C@H]1CC[C@H](Cn2c(=O)[nH]c3ccccc3c2=O)CC1`, the % Inhibition (commonly the drop in the measured response relative to a control, in per cent) was -12% and the Z score came out at 1.56.

Regarding `CC(C)(C)CC(=O)N[C@@H]1CC[C@H]2CCOc3ccccc3C(=O)N3CCN(CC4CC4)C[C@H]3C(=O)NC[C@H]1O2`, the “% Inhibition” value is reported as -6% and the Z score worked out at 0.81.

Regarding `O=C(Nc1ccc(NC(=O)C(c2ccccc2)c2ccccc2)cc1)c1ccccc1Cl`, the “% Inhibition” value is -3% and the Z score is given as 0.42.

In the case of `CC1OC(C)(C)OC1C1CNc2nc(NC(=O)C(C)(C)C)nc(O)c2N1C(=O)c1cccnc1` (centres undefined), the “% Inhibition” value is reported as -26% and the Z score is reported as 3.08.

In the case of `CC(C)c1nc2cc(C(=O)N3CCC[C@H](COc4ccccc4F)C3)ccc2o1`, the “% Inhibition” value is on record as -11% and the Z score turned out to be 1.58.

For the compound `CCOc1ccc(-c2cc3nc(C4CCN(C(=O)OC(C)(C)C)CC4)c(C(=O)Nc4ccc5c(c4)OCCO5)cn3n2)cc1`, the “% Inhibition” value is reported as -4% and the Z score came out at 0.65.

On to `Cc1cc(COCC(=O)N2CC(C)(C)O[C@@]3(C[C@@H]4CC[C@H]3C4)C2)no1`, for which the “% Inhibition” value is -20% and the Z score is on record as 2.12.

Consider `c1ccc2c(c1)CCN(c1nc(-c3c[nH]c4ccccc34)nc3c1CNC3)C2`, for which the “% Inhibition” value is listed as -10% and the Z score amounted to 1.96.

As to `COc1ccc(-c2cc(C(=O)N3CCC[C@H]3c3nc(C4CCOCC4)no3)c(C)n2C)cc1`, the “% Inhibition” value is listed as -9% and the Z score worked out at 1.15.

In the case of `Cc1sc2cc(C(=O)NCc3cccnc3)[nH]c2c1CN1CCCCC1`, the “% Inhibition” value is -7% and the Z score is 0.68.

For the compound `COc1cc(C(=O)NC[C@]2(O)CCCC2(C)C)nn1C`, the “% Inhibition” value was -16% and the Z score came out at 1.8.

Take `CC[C@H](C)NC(=O)Cc1cn(CC)c2ncccc12`: the “% Inhibition” value is reported as -17% and the Z score is 2.

Regarding `O=C(c1cc2n(n1)CCN(c1cnccn1)C2)N1CCCC1`, the “% Inhibition” value was -19% and the Z score was found to be 1.86.

As to `CN1CCN(CC[C@H](O)c2ccc(N)cc2)CC1`, the “% Inhibition” value is given as -3% and the Z score was 0.42.

Turning to `CC(C)CCNS(=O)(=O)c1ccc(-c2nc(C(C)C)cs2)s1`, the “% Inhibition” value was -11% and the Z score came to 2.01.

In the case of `CCc1cc(C(=O)N2CCN(Cc3cc(C)cc(C)c3)C(=O)C2)ccn1`, the “% Inhibition” value is given as -7% and the Z score is recorded as 0.98.

With `CCOC(=O)c1cnn(-c2nc(C)cc(C)n2)c1O`, the “% Inhibition” value was -4% and the Z score was 0.45.

For the compound `CCn1nccc1CN(C)C(=O)c1cc(S(=O)(=O)N(C)C)c(Cl)cc1Cl`, the “% Inhibition” value is on record as 30% and the Z score was -4.

For `CC(=O)Nc1nc(CN2CCC=C(c3ccccc3)C2)cs1`, the “% Inhibition” value is on record as 5% and the Z score was -0.94.

Take `COCCN1CC[C@H](CN(C)S(=O)(=O)Cc2ccc(Cl)cc2)C1`: the “% Inhibition” value is given as -6% and the Z score was found to be 1.12.

`N#Cc1ccccc1S(=O)(=O)N1CCC(c2nc(O)c3nnn(Cc4cccc(Cl)c4)c3n2)CC1`: the “% Inhibition” value is -18% and the Z score is listed as 2.31.

On to `Nc1nc(CNC(=O)[C@@H]2CC=CCC2)cs1`, for which the “% Inhibition” value is recorded as 4% and the Z score is given as -0.7.

Turning to `CCc1cnc(C)nc1N1CCN[C@H](C(=O)N2CCCC2)C1`, the “% Inhibition” value is reported as -9% and the Z score was 1.72.

Consider `Cc1nc([C@H]2CCOC2)cc(N2CCN(CCOc3ccccc3)CC2)n1`, for which the “% Inhibition” value is reported as -7% and the Z score amounted to 0.95.

As for `C[C@]1(C(=O)N2CCNCc3ccccc32)CCOC1`, the “% Inhibition” value was -5% and the Z score is given as 0.47.

Consider `CCO[C@@H](CC)c1noc(C2(c3ccccc3)CC2)n1`, for which the “% Inhibition” value is -2% and the Z score was determined as 0.46.

As to `Cc1cc(C(N)=O)c(N(C)CC[C@H](C)N2CCCC2)nc1C`, the “% Inhibition” value is -4% and the Z score is reported as 0.88.

Consider `CN(CCc1cnccn1)C1CCC(C#N)C1` (centres undefined), for which the “% Inhibition” value worked out at 0% and the Z score is recorded as -0.04.

Turning to `O=S(=O)(c1ccccc1)N(c1ccc(F)cc1)C1CCN(Cc2ccc(C(F)(F)F)cc2)CC1`, the “% Inhibition” value is given as -16% and the Z score is 1.51.

`C[C@H]1COc2ccc(C(=O)NCc3nnc(C4CC4)s3)cc21`: the “% Inhibition” value is -6% and the Z score was found to be 0.74.

For `Cc1nc(C(=O)N2CCC(NC(=O)CC3CCCC3)CC2)c(-c2ccccc2)o1`, the “% Inhibition” value is -3% and the Z score is given as 0.53.

On to `NC(=NOCc1nnc(-c2ccc(Cl)cc2Cl)o1)C1CCCC1`, for which the “% Inhibition” value was -7% and the Z score amounted to 0.99.

Turning to `Cc1ccc(NC(=O)Cn2c(C)cc(=O)c3sccc32)cc1Cl`, the “% Inhibition” value came to 35% and the Z score is listed as -4.5.

Turning to `COCc1c(C(=O)N2CC[C@H]3C(=O)N(Cc4ccc(F)cc4)CCN3CC2)noc1C`, the “% Inhibition” value was -4% and the Z score was 0.76.

Regarding `CCCN(CCC)C(=O)[C@H](C)n1cccn1`, the “% Inhibition” value is recorded as -1% and the Z score stood at 0.09.

Take `CC(C)(C)c1nnc(C(=O)NC[C@H]2CCCS(=O)(=O)C2)s1`: the “% Inhibition” value came out at 1% and the Z score is -0.11.

Take `CCc1noc(C)c1-c1noc(Cn2nc(C)cc2C)n1`: the “% Inhibition” value is listed as -4% and the Z score was 0.67.

`O=C(NC(C1CC1)C1CC1)c1coc(COc2cccc(F)c2)n1`: the “% Inhibition” value was -6% and the Z score came to 1.01.

Turning to `CC(C)NC(=O)CN(C)[C@@H](C(N)=O)c1cccc(Br)c1`, the “% Inhibition” value was -14% and the Z score came out at 1.71.

For the compound `COc1ccc([C@@H](NS(=O)(=O)N2CCOCC2)C2CC(O)C2)cn1` (some centres undefined), the “% Inhibition” value turned out to be 1% and the Z score is -0.15.

Take `CCN(CC)CCNC(=O)[C@H](C)N1C(=O)COc2ccc(C(=O)COc3ccc(C)cc3C)cc21`: the “% Inhibition” value is on record as 4% and the Z score is given as -0.56.

Take `CCc1ccc(-c2nccn2-c2cccc(NC(C)=O)c2)nc1`: the “% Inhibition” value is on record as -5% and the Z score is on record as 0.47.

Regarding `Cc1ccccc1-c1cc2c(N3CCN(C(=O)c4ccco4)CC3)nccn2n1`, the “% Inhibition” value is 3% and the Z score is -0.44.

`CC(C)Cc1noc(CNC(=O)CN2CCC[C@H](O)C2)n1`: the “% Inhibition” value is listed as -14% and the Z score turned out to be 1.45.

For the compound `O=C(CC1CCN(C(=O)c2ccc3oc(-c4ccccc4)nc3c2)CC1)N1CCCCCC1`, the “% Inhibition” value was -16% and the Z score came to 1.91.

As to `OCC#Cc1ccc(-c2nccn2-c2ccc3ncsc3c2)s1`, the “% Inhibition” value is recorded as -2% and the Z score was 0.3.

On to `CCCN1CCC[C@H](C(=O)NOC(C)C)C1`, for which the “% Inhibition” value was -3% and the Z score turned out to be 0.49.

In the case of `CCCn1cc(CCNC(=O)CC)c2cccnc21`, the “% Inhibition” value was -17% and the Z score was found to be 1.93.

For `COc1ccc(S(=O)(=O)CCN2C(=O)CN(C)C2=O)c(Cl)c1`, the “% Inhibition” value was -4% and the Z score was 0.6.

`CC1CC(c2ccccc2F)N(C(=O)C2CC23CCNCC3)C1` (centres undefined): the “% Inhibition” value was -18% and the Z score is given as 2.11.

In the case of `CN(CC1=CCCOC1)Cc1nnc(C2CC2)n1C`, the “% Inhibition” value was -7% and the Z score is on record as 1.45.

With `COc1ccc(CN2C(=O)CO[C@H]3CN(Cc4ccccc4OC)C[C@H]32)cc1`, the “% Inhibition” value was -11% and the Z score turned out to be 2.28.

(Values after ChEMBL document CHEMBL4888484, “Replenishing the malaria drug discovery pipeline: Screening and hit evaluation of the MMV Hit Generation Library 1 (HGL1) against asexual blood stage Plasmodium falciparum ,using a nano luciferase reporter read-out” (2022).)
